Among the data in a collection of fitness landscapes (doi:10.1126/science.1257360) are enrichment ratio values, retold here.

The list shows a part of the results.

B1: PhoQ; a variant is named by its letters at X, in order, P23837 (parent)
chain: MKKLLRLFFPLSLRVRFLLATAAVVLVLSLAYGMVALIGYSVSFDKTTFRLLRGESNLFYTLAKWENNKLHVELPENIDKQSPTMTLIYDENGQLLWAQRDVPWLMKMIQPDWLKSNGFHEIEADVNDTSLLLSGDHSIQQQLQEVREDDDDAEMTHSVAVNVYPATSRMPKLTIVVVDTIPVELKSSYMVWSWFIYVLSANLLLVIPLLWVAAWWSLRPIEALAKEVRELEEHNRELLNPATTRELTSLVRNLNRLLKSERERYDKYRTTLTDLTHSLKTPLXXLQXXLRSLRSEKMSVSDAEPVMLEQISRISQQIGYYLHRASMRGGTLLSRELHPVAPLLDNLTSALNKVYQRKGVNISLDISPEISFVGEQNDFVEVMGNVLDNACKYCLEFVEISARQTDEHLYIVVEDDGPGIPLSKREVIFDRGQRVDTLRPGQGVGLAVAREITEQYEGKIVAGESMLGGARMEVIFGRQHSAPKDE

Variants of B1 are the subject of the assay. Description: enrichment ratio after two sorts for PhoP signalling (ratio (wild type AVST 3.29)); higher = more functional. The conditions noted are these: with PhoP (E. coli).
Regarding RPEH, the enrichment ratio is not above 0.25.

As for TKYD, the enrichment ratio is not above 0.25. In the case of KTQW it was not above 0.25; in that of QIQS, not above 0.25. As for IRSL, the figure is not above 0.25; as for MCWQ, not above 0.25. For QCIF, the enrichment ratio was not above 0.25.

For LMEG, the enrichment ratio was not above 0.25. In the case of EMKK it was not above 0.25.

Turning to AKWI, the enrichment ratio is not above 0.25. In the case of QYEF it was not above 0.25; in that of KPVE, not above 0.25; in that of EIFT, not above 0.25. As for EIYQ, the figure is not above 0.25; as for KSQV, not above 0.25. In the case of NYYH it was not above 0.25.

For QHLI, the enrichment ratio is not above 0.25. Take LVHI: the enrichment ratio is not above 0.25. Regarding VYLE, the enrichment ratio is not above 0.25.

Consider ESDY, for which the enrichment ratio was not above 0.25. In the case of PVAN it was not above 0.25; in that of MRYC, not above 0.25; in that of ALST, 2.76. In the case of PTHG it was not above 0.25; in that of RCIN, not above 0.25. As for NGSM, the figure is not above 0.25; as for HSRS, not above 0.25. As for SQTW, the enrichment ratio is not above 0.25. As to WLMV, the enrichment ratio was not above 0.25. As to LNTG, the enrichment ratio is not above 0.25. In the case of DYYR it was not above 0.25; in that of QAVY, not above 0.25; in that of YYKN, not above 0.25.

Consider GDRG, for which the enrichment ratio was not above 0.25. For the variant WLWG, the enrichment ratio was not above 0.25.

SQGF: the enrichment ratio worked out at 0.381. In the case of SREM it was not above 0.25; in that of IVTN, not above 0.25. As for TITE, the figure is not above 0.25; as for WWPF, not above 0.25. In the case of YAWC it was not above 0.25; in that of QNGP, not above 0.25; in that of RVTN, not above 0.25. Regarding GRAL, the enrichment ratio was not above 0.25.

In the case of KPFT, the enrichment ratio is not above 0.25. In the case of TVCG it was 10.1; in that of EATV, not above 0.25.

In the case of VAWD, the enrichment ratio was not above 0.25. In the case of GHIF it was not above 0.25.

As for IVGG, the enrichment ratio is not above 0.25. As for PSHQ, the figure is not above 0.25; as for KACR, not above 0.25. In the case of SYVP it was not above 0.25; in that of DGGT, not above 0.25; in that of ETNQ, not above 0.25. In the case of YFRL it was not above 0.25; in that of FMEN, not above 0.25. Take DKHH: the enrichment ratio was not above 0.25. As for SYRF, the enrichment ratio was not above 0.25. In the case of VRIS it was not above 0.25. As for YIRQ, the figure is not above 0.25; as for RIVK, not above 0.25. As for RSTC, the figure is not above 0.25; as for FRIP, not above 0.25.

Turning to VVIV, the enrichment ratio was not above 0.25. As for IYKS, the figure is not above 0.25. In the case of HCDG it was not above 0.25; in that of TFAY, not above 0.25; in that of MMLE, not above 0.25.

Turning to TMCF, the enrichment ratio is not above 0.25. In the case of NNWN it was not above 0.25.

On to HTPA, for which the enrichment ratio was not above 0.25. In the case of MNVT it was not above 0.25; in that of TEFY, 3.62; in that of DYMW, not above 0.25. In the case of DVND it was not above 0.25; in that of LAAE, not above 0.25.

With MQFD, the enrichment ratio was 14.7. Take KSQE: the enrichment ratio was not above 0.25. In the case of QNHP it was not above 0.25; in that of NGDV, not above 0.25.

Turning to DMRI, the enrichment ratio was not above 0.25. In the case of RINI it was not above 0.25; in that of ICDG, not above 0.25. As for FETE, the figure is not above 0.25.

IPLY: the enrichment ratio was not above 0.25.

Turning to VFGH, the enrichment ratio is not above 0.25. Regarding ALTL, the enrichment ratio stood at 15.2. Take AAIG: the enrichment ratio is not above 0.25. Turning to ELYR, the enrichment ratio was not above 0.25. In the case of GQSS it was not above 0.25.

For DVCD, the enrichment ratio was not above 0.25. As for NLWH, the figure is not above 0.25; as for KYGR, not above 0.25; as for MKPS, not above 0.25. In the case of AWYT it was not above 0.25; in that of WWWS, not above 0.25. As to EKAF, the enrichment ratio was not above 0.25. Consider IQEP, for which the enrichment ratio was not above 0.25. As for ECLH, the figure is not above 0.25; as for LLSS, not above 0.25; as for RRHY, not above 0.25. On to KPDF, for which the enrichment ratio is not above 0.25.

As for SVAT, the enrichment ratio amounted to 4.63.

Consider GTKM, for which the enrichment ratio was not above 0.25. As for QHRT, the figure is not above 0.25. As for QTWE, the figure is 6.63; as for DFDK, not above 0.25; as for VLMS, not above 0.25. In the case of THAG it was 3.58. On to LEPN, for which the enrichment ratio is not above 0.25. As for QWLR, the figure is not above 0.25; as for PYYE, not above 0.25.

For PQPE, the enrichment ratio is not above 0.25. As for DCCC, the figure is not above 0.25; as for AQWG, not above 0.25; as for LKAH, 1.18. As to YAFL, the enrichment ratio is not above 0.25.

In the case of NMCM, the enrichment ratio is not above 0.25. As for YEKC, the figure is not above 0.25; as for TVKP, not above 0.25.

For TADH, the enrichment ratio was found to be 4.03.

With HFYV, the enrichment ratio was not above 0.25. As for IDYK, the enrichment ratio was not above 0.25.

On to APRL, for which the enrichment ratio is not above 0.25. As for LRFC, the figure is not above 0.25; as for SHKD, not above 0.25; as for MRTV, not above 0.25. Regarding SMPA, the enrichment ratio is not above 0.25. In the case of FHPR it was not above 0.25. In the case of NECR it was not above 0.25; in that of DIMI, not above 0.25.

Consider ETMQ, for which the enrichment ratio was not above 0.25. Take TTVY: the enrichment ratio is not above 0.25.

In the case of PMFR, the enrichment ratio was not above 0.25. As for PSIR, the figure is not above 0.25.

As for TVAY, the enrichment ratio is 0.466.

For ARNW, the enrichment ratio is not above 0.25.

For the variant HKHT, the enrichment ratio was not above 0.25. As for YGHK, the figure is not above 0.25; as for VMRF, 0.322. Take NYIP: the enrichment ratio was not above 0.25. In the case of TGTY it was 6.78. In the case of TRIS it was not above 0.25; in that of HEPE, not above 0.25. In the case of RWSF it was not above 0.25; in that of IWAI, not above 0.25. In the case of REQP, the enrichment ratio is not above 0.25.

As to RMMA, the enrichment ratio turned out to be 4.49. Turning to YLMH, the enrichment ratio was not above 0.25. Take YKMV: the enrichment ratio was not above 0.25. On to WQSV, for which the enrichment ratio is not above 0.25. In the case of LPLV it was not above 0.25; in that of KVTP, not above 0.25; in that of STAP, not above 0.25.

With AGMQ, the enrichment ratio worked out at 0.272. In the case of WNFW it was not above 0.25; in that of ERLV, not above 0.25. For IPRC, the enrichment ratio is not above 0.25. As for SRFT, the figure is 0.273; as for VASS, not above 0.25; as for RHQN, not above 0.25. In the case of LMIT it was not above 0.25. As for FVVD, the figure is not above 0.25. Consider IRKY, for which the enrichment ratio was not above 0.25. In the case of RKFY it was not above 0.25; in that of RTNV, not above 0.25; in that of MMPY, not above 0.25. In the case of KVRQ it was not above 0.25; in that of IENV, not above 0.25.

HYGC: the enrichment ratio was not above 0.25.

Regarding WDYC, the enrichment ratio is not above 0.25.

Turning to HGWR, the enrichment ratio was not above 0.25.

For the variant IAGH, the enrichment ratio is not above 0.25.

Turning to APFQ, the enrichment ratio is not above 0.25. As for PMFP, the figure is not above 0.25; as for EILP, not above 0.25; as for NHDM, not above 0.25.

Turning to SKPN, the enrichment ratio was not above 0.25. In the case of WGMG it was not above 0.25; in that of RYYL, not above 0.25. As for WSVM, the figure is not above 0.25; as for RHCD, not above 0.25; as for QNPG, not above 0.25.

In the case of SPTQ, the enrichment ratio is not above 0.25. In the case of VTRG it was not above 0.25. In the case of MMMH it was not above 0.25; in that of SQSV, 11.9; in that of SSEI, not above 0.25. In the case of WPMM it was not above 0.25; in that of AMML, 7.98; in that of DFMF, not above 0.25. KVYL: the enrichment ratio was not above 0.25.

As for YGID, the enrichment ratio is not above 0.25. In the case of QYQP it was not above 0.25.
